The target of data set [1] is T1, human GLP-2R (human, UniProt O95838 1-553).
T1 sequence (looked up): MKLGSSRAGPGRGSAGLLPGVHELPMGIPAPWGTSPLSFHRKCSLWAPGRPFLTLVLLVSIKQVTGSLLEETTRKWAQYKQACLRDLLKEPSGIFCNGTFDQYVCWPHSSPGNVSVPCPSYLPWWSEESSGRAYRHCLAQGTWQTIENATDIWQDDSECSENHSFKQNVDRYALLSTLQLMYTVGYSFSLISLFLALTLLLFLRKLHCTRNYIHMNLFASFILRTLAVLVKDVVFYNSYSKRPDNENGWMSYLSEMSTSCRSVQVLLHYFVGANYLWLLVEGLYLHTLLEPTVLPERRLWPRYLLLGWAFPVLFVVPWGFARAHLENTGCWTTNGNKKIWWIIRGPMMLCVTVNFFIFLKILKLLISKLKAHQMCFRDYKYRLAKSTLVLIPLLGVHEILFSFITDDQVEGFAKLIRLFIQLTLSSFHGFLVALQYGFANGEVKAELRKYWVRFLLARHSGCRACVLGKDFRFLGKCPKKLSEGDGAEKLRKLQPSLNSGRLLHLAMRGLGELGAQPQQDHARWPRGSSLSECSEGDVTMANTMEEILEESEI
In words: cell-based or functional assay.

The target in the next data set is human GLP-2R (human) (UniProt O95838). The data set is described as follows: cell-based or functional assay.
For data set [2], the target named is T2, human GLP-2R (Homo sapiens, UniProt O95838).
T2 construct: host or cells: CHO-K1
T2 sequence (O95838 1-553): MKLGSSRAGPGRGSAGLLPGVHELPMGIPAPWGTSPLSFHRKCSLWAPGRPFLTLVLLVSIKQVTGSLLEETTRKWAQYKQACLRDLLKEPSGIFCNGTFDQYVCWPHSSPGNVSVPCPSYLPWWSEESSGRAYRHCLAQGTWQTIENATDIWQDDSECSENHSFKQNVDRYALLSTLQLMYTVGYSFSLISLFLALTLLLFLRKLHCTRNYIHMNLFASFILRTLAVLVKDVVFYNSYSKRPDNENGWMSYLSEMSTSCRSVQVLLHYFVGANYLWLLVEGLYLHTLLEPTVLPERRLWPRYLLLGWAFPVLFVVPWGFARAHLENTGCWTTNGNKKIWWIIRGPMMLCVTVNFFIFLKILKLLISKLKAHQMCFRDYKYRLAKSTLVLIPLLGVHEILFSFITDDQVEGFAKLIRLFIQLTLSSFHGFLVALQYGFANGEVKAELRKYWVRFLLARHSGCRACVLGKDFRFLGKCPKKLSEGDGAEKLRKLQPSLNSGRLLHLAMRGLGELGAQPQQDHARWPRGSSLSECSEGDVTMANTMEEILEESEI
In words: cAMP Hunter eXpress GLP2R CHO-K1 GPCR assay (agonist activity, cAMP). The format is cell-based. Conditions: CHO-K1 cell line overexpressing human GLP-2R, sigmoidal curve fitting. As to the method: The EC50 of GLP-2 peptibodies was assayed in vitro using the cAMP Hunter™ eXpress GLP2R CHO-K1 GPCR assay from DiscoverX. The cAMP Hunter™ assay is based on enzyme fragment complementation (EFC). In EFC assay, the enzyme donor is fused to cAMP. Increased intracellular cAMP due to GLP-2R activation competes with ED-cAMP for antibody. Unbound ED-cAMP complements the enzyme acceptor to form active beta galactosidase, which subsequently produces a luminescent signal. The CHO-K1 cell line used is overexpressing human GLP-2R (Genbank accession number NM004246.1). Following cell lysis, agonist activities of the GLP-2 peptibodies were assayed via measurement of the concentration of cAMP.

Data set [3] is described as follows: SEC-MALS assay (protein stability analysis). The class given is physicochemical. As to the method: A SEC-MALS assay was performed to determine the primary state (main peak) and its molecular weight. The GLP-2 peptibody A has the amino acid sequence set forth in SEQ ID NO: 1. The GLP-2 peptibody B has the amino acid sequence set forth in SEQ ID NO: 4. The GLP-2 peptibody C has the amino acid sequence set forth in SEQ ID NO: 7. The GLP-2 peptibody D has the amino acid sequence set forth in SEQ ID NO: 10.

B1: GLP-2 peptibody C (Fc fusion)
chain: HGDGSFSDEMNTILDNLAARDFINWLIQTKITDAEAAAKEAAAKEAAAKALEAEAAAKEAAAKEAAAKA[human IgG1 Fc with changes not listed]
For B1, the “EC50 (nM), cAMP Hunter eXpress GLP2R CHO-K1 GPCR assay” value (shortened to “EC50 (nM)”) with human GLP-2R [1] came to 1.48 nM.

B2: GLP-2 peptibody A (Fc fusion)
chain: HGDGSFSDEMNTILDNLAARDFINWLIQTKITDGSAGSAAGSGEF[human IgG1 Fc with changes not listed]
With B2, in the data set with human GLP-2R (human), the EC50 (nM), cAMP Hunter eXpress GLP2R CHO-K1 GPCR assay worked out at 4.79 nM.

B3: GLP-2 peptibody A: GLP-2[A2G]-linker GSAGSAAGSGEF-IgG1(LALA) Fc fusion having the amino acid sequence of SEQ ID NO: 1 (protein, listed as Homo sapiens)
chain: HGDGSFSDEMNTILDNLAARDFINWLIQTKITDGSAGSAAGSGEF[human IgG1 Fc with changes not listed]
In general, EC50 refers to the concentration needed to bring the measured effect to its halfway point. The low end stands for greater potency, the high end for weaker potency. B3 registered an EC50 in the data set with human GLP-2R [2] of 4.79 nM. Moreover, the “SEC-MALS HMW” value in data set [3] (high molecular weight fraction) came out at 3% HMW. In data set [3] (main peak fraction), the “SEC-MALS Main Peak” value is 74.7% Main Peak. In data set [3] (tailing peak fraction), the “SEC-MALS Tailing Peak” value is given as 17.3% Tailing Peak.

B4: GLP-2 peptibody D (Fc fusion)
chain: HGDGSFSDEMNTILDNLAARDFINWLIQTKITDRGGGGSGGGGSGGGGS[human IgG1 Fc with changes not listed]
As to B4, the “EC50 (nM)” value with human GLP-2R [1] turned out to be 4.07 nM.

B5: GLP-2 peptibody B (Fc fusion)
chain: HGDGSFSDEMNTILDNLAARDFINWLIQTKITDAPAPAPAPAPAPAPAPAPAP[human IgG1 Fc with changes not listed]
As to B5, the “EC50 (nM)” value with human GLP-2R [1] was found to be 0.76 nM.

The values above are taken from patent US20210355187A1, “GLP-2 FUSION POLYPEPTIDES AND USES FOR TREATING AND PREVENTING GASTROINTESTINAL CONDITIONS” (SHIRE-NPS PHARMACEUTICALS, INC., priority 2018, published 2021).
